Experimental data reported in the supplement of paper PMC4967469.

What was measured:
Test in all cases: Viability of human cancer cell lines after 72 h of drug (GDSC screen)
JW-7-52-1 = compound: CCC(=O)N1CCN(c2ccc(-n3c(=O)ccc4cnc5ccc(-c6cnc7ccccc7c6)cc5c43)cc2C(F)(F)F)CC1 [JW-7-52-1]; conditions: top dose 1.2 µM; top dose inferred
Experimental: (§1)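 Human cancer cell lines in 384-well plates, medium with 10% serum, drug for 72 h over a 256-fold dose range (nine 2-fold or five 4-fold steps up to the top dose). Adherent lines were fixed and stained with the nucleic acid dye Syto60, suspension lines read with resazurin; signal relative to control wells, capped at 0 and 100%. One two-parameter sigmoid per drug and line, fitted in a mixed model over all curves with the slope shared within a line.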

Z-LLNle-CHO = compound: CCCC[C@@H](C=O)NC(=O)[C@H](CC(C)C)NC(=O)[C@H](CC(C)C)NC(=O)OCc1ccccc1 [Z-LLNle-CHO]; conditions: top dose 2.56 µM; top dose inferred
Experimental: as §1

ZG-10 = compound: CN(C)C/C=C/C(=O)Nc1ccc(C(=O)Nc2cccc(Nc3nccc(-c4cccnc4)n3)c2)cc1 [ZG-10]; conditions: top dose 10 µM; top dose inferred
Experimental: as §1

Tubastatin A = compound: CN1CCc2c(c3ccccc3n2Cc2ccc(C(=O)NO)cc2)C1 [Tubastatin A]; conditions: top dose 20 µM
Experimental: as §1

Rapamycin = compound: CO[C@H]1C[C@@H]2CC[C@@H](C)[C@@](O)(O2)C(=O)C(=O)N2CCCC[C@H]2C(=O)O[C@H]([C@H](C)C[C@@H]2CC[C@@H](O)[C@H](OC)C2)CC(=O)[C@H](C)/C=C(\C)[C@@H](O)[C@@H](OC)C(=O)[C@H](C)C[C@H](C)/C=C/C=C/C=C/1C [Rapamycin]; conditions: top dose 0.1 µM; top dose inferred
Experimental: as §1

XL-880 = compound: COc1cc2c(Oc3ccc(NC(=O)C4(C(=O)Nc5ccc(F)cc5)CC4)cc3F)ccnc2cc1OCCCN1CCOCC1 [XL-880]; conditions: top dose 5.12 µM; top dose inferred
Experimental: as §1

Temozolomide = compound: Cn1nnc2c(C(N)=O)ncn2c1=O [Temozolomide]; conditions: top dose 30 µM
Experimental: as §1

CI-1040 = compound: O=C(NOCC1CC1)c1ccc(F)c(F)c1Nc1ccc(I)cc1Cl [CI-1040]; conditions: top dose 10 µM; top dose inferred
Experimental: as §1

IPA-3 = compound: Oc1ccc2ccccc2c1SSc1c(O)ccc2ccccc12 [IPA-3]; conditions: top dose 32 µM; top dose inferred
Experimental: as §1

| Cell Line | AUC (JW-7-52-1) | IC50 (JW-7-52-1) | AUC (Z-LLNle-CHO) | IC50 (Z-LLNle-CHO) | AUC (ZG-10) | IC50 (ZG-10) | AUC (Tubastatin A) | IC50 (Tubastatin A) | AUC (Rapamycin) | IC50 (Rapamycin) | AUC (XL-880) | IC50 (XL-880) | AUC (Temozolomide) | IC50 (Temozolomide) | AUC (CI-1040) | IC50 (CI-1040) | AUC (IPA-3) | IC50 (IPA-3) |
| --- | --- | --- | --- | --- | --- | --- | --- | --- | --- | --- | --- | --- | --- | --- | --- | --- | --- | --- |
| SR (lymphoid neoplasm, suspension) | 0.498 | 0.0743 µM | 0.651 | 0.4 µM | 0.552 | 0.852 µM | 0.738 | 5.49 µM | 0.547 | 0.00828 µM | 0.402 | 0.177 µM | 0.734 | 8 µM | 0.952 | > 10 µM | 0.645 | 4.81 µM |
| AMO-1 (haematopoietic neoplasm, suspension) | 0.625 | 0.157 µM | 0.69 | 0.499 µM | 0.65 | 1.52 µM | 0.899 | 19.1 µM | 0.904 | > 0.1 µM | 0.66 | 0.828 µM | 0.981 | > 30 µM | 0.91 | > 10 µM | 0.758 | 9.7 µM |
| NB1 (neuroblastoma, semi-adherent) | 0.666 | 0.229 µM | 0.819 | 1.65 µM | 0.561 | 0.933 µM | 0.955 | > 20 µM | 0.782 | 0.0464 µM | 0.663 | 0.958 µM | 0.982 | > 30 µM | 0.906 | > 10 µM | 0.865 | > 32 µM |
| LS-1034 (large intestine, adherent) | 0.7 | 0.293 µM | 0.917 | > 2.56 µM | 0.939 | > 10 µM | 0.928 | > 20 µM | 0.874 | > 0.1 µM | 0.654 | 0.899 µM | 0.985 | > 30 µM | 0.863 | > 10 µM | 0.967 | > 32 µM |
| DND-41 (T-cell leukaemia, suspension) | 0.598 | 0.135 µM | 0.719 | 0.612 µM | 0.625 | 1.32 µM | 0.79 | 7.78 µM | 0.872 | 0.076 µM | 0.683 | 0.966 µM | 0.985 | > 30 µM | 0.827 | 5.17 µM | 0.627 | 4.27 µM |
| COR-L95 (small cell lung carcinoma, adherent) | 0.804 | 0.713 µM | 0.974 | > 2.56 µM | 0.804 | 5.94 µM | 0.977 | > 20 µM | 0.97 | > 0.1 µM | 0.762 | 2.11 µM | 0.985 | > 30 µM | 0.981 | > 10 µM | 0.971 | > 32 µM |
| DG-75 (Burkitt lymphoma, suspension) | 0.671 | 0.226 µM | 0.875 | > 2.56 µM | 0.534 | 0.776 µM | 0.984 | > 20 µM | 0.934 | > 0.1 µM | 0.77 | 1.96 µM | 0.977 | > 30 µM | 0.934 | > 10 µM | 0.969 | > 32 µM |
| TE-9 (oesophagus, adherent) | 0.704 |  | 0.795 | 1.24 µM | 0.787 | 4.52 µM | 0.983 | > 20 µM | 0.978 | > 0.1 µM | 0.875 | > 5.12 µM | 0.979 | > 30 µM | 0.953 | > 10 µM | 0.817 | 18.8 µM |
| RH-1 (rhabdomyosarcoma, adherent) | 0.701 | 0.246 µM | 0.905 | 2.46 µM | 0.674 | 1.74 µM | 0.804 | 8.09 µM | 0.991 | > 0.1 µM | 0.367 | 0.147 µM | 0.962 | > 30 µM | 0.974 | > 10 µM | 0.834 | 16.3 µM |
| Daudi (Burkitt lymphoma, suspension) | 0.413 | 0.0449 µM | 0.709 | 0.567 µM | 0.721 | 2.39 µM | 0.813 | 9.1 µM | 0.226 | 0.00114 µM | 0.427 | 0.208 µM | 0.99 | > 30 µM | 0.957 | > 10 µM | 0.693 | 6.41 µM |
| LAN-6 (neuroblastoma, adherent) | 0.86 | > 1.2 µM | 0.824 | 1.91 µM | 0.902 | > 10 µM | 0.985 | > 20 µM | 0.96 | > 0.1 µM | 0.866 | > 5.12 µM | 0.983 | > 30 µM | 0.737 | 3.42 µM | 0.82 | 23 µM |
| KCL-22 (chronic myeloid leukaemia, suspension) | 0.407 | 0.0435 µM | 0.739 | 0.671 µM | 0.648 | 1.49 µM | 0.869 | 13.6 µM | 0.782 | 0.0349 µM | 0.515 | 0.349 µM | 0.991 | > 30 µM | 0.881 | 7.62 µM | 0.75 | 9 µM |
| TE-1 (oesophagus, adherent) | 0.658 | 0.233 µM | 0.757 | 1.1 µM | 0.738 | 3.65 µM | 0.981 | > 20 µM | 0.831 | 0.0882 µM | 0.801 | 3.31 µM | 0.98 | > 30 µM | 0.883 | > 10 µM | 0.982 | > 32 µM |
| SNU-C2B (large intestine, adherent) | 0.645 | 0.215 µM | 0.734 | 0.939 µM | 0.868 | > 10 µM | 0.948 | > 20 µM | 0.967 | > 0.1 µM | 0.813 | 3.91 µM | 0.956 | > 30 µM | 0.804 | 6.99 µM | 0.963 | > 32 µM |

Lines with a small IC50 respond at low doses; a fit beyond the top or the lowest dose is shown as a bound at that dose. AUC, from the same fit, is the share of area under the viability curve across the 256-fold dose range: 1 means no effect, lower means more sensitive. For some assays here: A top dose marked as inferred was calculated from the reported fits.
